Measurements published in paper PMC4336329 (PLoS ONE, 2015).
The campaign covered roughly 310,000 compounds. About 14,000 (4.5%) showed an effect of 50% or more. Effects have a minus sign here. The list shows a part of the results.

Each compound was assayed against human ether-à-go-go-related gene (hERG) potassium channel (human, UniProt Q12809) (assay: primary screen, population patch clamp on CHO cells stably expressing hERG).
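Also: peak tail current of the secondary pulse compared with the same well before compound.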

human ether-à-go-go-related gene (hERG) potassium channel, sequence (Q12809 whole entry, looked up): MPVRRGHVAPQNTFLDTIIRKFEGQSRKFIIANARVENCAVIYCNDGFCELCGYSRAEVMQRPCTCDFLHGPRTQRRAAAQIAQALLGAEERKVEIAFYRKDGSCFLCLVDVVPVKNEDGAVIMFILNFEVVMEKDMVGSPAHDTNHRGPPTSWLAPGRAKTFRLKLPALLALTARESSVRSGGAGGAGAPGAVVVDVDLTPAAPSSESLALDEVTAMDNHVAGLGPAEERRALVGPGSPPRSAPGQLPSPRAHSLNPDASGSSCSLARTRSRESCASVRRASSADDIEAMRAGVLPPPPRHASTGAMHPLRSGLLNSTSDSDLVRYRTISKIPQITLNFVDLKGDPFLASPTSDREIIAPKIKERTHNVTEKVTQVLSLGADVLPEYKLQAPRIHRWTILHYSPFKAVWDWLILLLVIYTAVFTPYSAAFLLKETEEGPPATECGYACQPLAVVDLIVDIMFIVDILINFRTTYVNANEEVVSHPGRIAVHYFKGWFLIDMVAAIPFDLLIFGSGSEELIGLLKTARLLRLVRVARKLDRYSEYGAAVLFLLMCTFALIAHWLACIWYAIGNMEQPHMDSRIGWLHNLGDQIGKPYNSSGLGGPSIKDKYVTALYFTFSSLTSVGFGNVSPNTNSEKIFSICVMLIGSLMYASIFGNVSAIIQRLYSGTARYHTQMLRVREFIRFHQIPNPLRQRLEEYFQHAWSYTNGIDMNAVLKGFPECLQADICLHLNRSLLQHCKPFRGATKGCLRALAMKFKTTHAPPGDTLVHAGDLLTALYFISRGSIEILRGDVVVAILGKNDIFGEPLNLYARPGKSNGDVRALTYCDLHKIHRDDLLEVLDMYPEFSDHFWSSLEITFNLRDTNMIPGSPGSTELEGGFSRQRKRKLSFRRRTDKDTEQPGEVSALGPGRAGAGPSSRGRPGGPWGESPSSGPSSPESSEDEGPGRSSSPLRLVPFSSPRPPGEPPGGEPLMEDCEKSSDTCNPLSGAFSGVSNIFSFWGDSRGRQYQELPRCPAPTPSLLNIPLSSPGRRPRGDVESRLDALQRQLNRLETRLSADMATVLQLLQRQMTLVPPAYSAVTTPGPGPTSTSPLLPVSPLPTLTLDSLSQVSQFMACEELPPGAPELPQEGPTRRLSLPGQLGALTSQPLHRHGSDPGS

Structure (SMILES)	hERG current change (%, negative = inhibition) at 10uM [%]
CC(=O)NCCC(=O)Nc1cc(S(=O)(=O)Nc2ccc(Cl)cc2)ccc1N1CCCC1	13.4
COc1ccc(C(=O)C2CCCN(Cc3ccsc3)C2)cc1OC (stereo not shown)	-73.8
NC(=O)c1cc2cc(Cl)ccc2oc1=Nc1cccc(C(F)(F)F)c1	21
CCN1CCN(CC(=O)Nc2ccc3c(c2)OCCO3)C(=O)C1=O	22.7
O=C(COC(=O)c1ccccc1NC(=O)c1ccco1)NCCC1=CCCCC1	-8.73
Cc1noc(C)c1C(=O)OCC(=O)N(C)C1CCS(=O)(=O)C1 (stereo not shown)	19.8
CCOc1ccc(-c2nnn(CC(=O)N3CCN(c4ccc(F)cc4)CC3)n2)cc1OCC	11.4
CC(=O)Nc1ccc(C(=O)N(C)C(C(=O)Nc2ccc(C)cc2)c2ccccn2)cc1 (stereo not shown)	-7.71
NC1=NC[C@H](Cc2ccc(O)cc2)N1CCCCC1CCCCC1	-50.2
C=CCn1c(C(c2ccccc2)c2ccccc2)n[nH]c1=S	4.89
COc1cccc(Nc2nc3ccccc3n3nnnc23)c1	22.1
O=C(CNC(=S)NC(=O)C1CCCCC1)c1ccccc1	9.03
COc1ccc(CC(NC(C)=O)C(=O)NC2CCN(C(=O)NCc3ccccc3)CC2)cc1 (stereo not shown)	6.59
C#CC(C)(C)NC(=O)c1sccc1Oc1ccc(F)cc1[N+](=O)[O-]	1.94
COC(=O)c1nnn(-c2cc(Cl)cc(Cl)c2)c1C(=O)OC	8.74
COc1ccc(S(C)(=O)=O)cc1S(C)(=O)=O	0.58
Cc1cc(C)n(CCc2nc(-c3ccc(F)cc3)cs2)n1	-16.7
COc1ccccc1CNC(=O)CN1C(=O)COc2ccc(S(=O)(=O)N3CCCCC3)cc21	6.87
Cc1ccc(NC(=O)c2cccc(C(=O)Nc3ccc(C)cc3C(=O)O)c2)c(C(=O)O)c1	20.1
COc1cccc(NS(=O)(=O)c2c(C(=O)N3CCCCCC3)c(C)n(C)c2C)c1	-6.52
COC(=O)[C@@H](NC(=O)Nc1ccccc1F)C(C)C	3.57
Cc1cccc(CN2C(=O)c3ccccc3S(=O)(=O)c3ccc(C(=O)NCCCN4CCCC4)cc32)c1	-5.34

Structure (SMILES)	hERG current change (%, negative = inhibition) at 10uM [%]
CCCCCCCCn1c(N2CCN(c3cccc(Cl)c3)CC2)nc2c1c(=O)[nH]c(=O)n2C	5.65
CCOC(=O)c1[nH]c(C)c(C(=O)NCc2ccc(Cl)cc2)c1C	8.19
CC1CCCN(C(=O)COC(=O)c2cc([N+](=O)[O-])ccc2N2CCOCC2)C1 (stereo not shown)	-14.6
COCCOC(=O)C1=C(N)Oc2c(oc(CO)cc2=O)C1c1c(F)cccc1Cl (stereo not shown)	-3.93
CCCCn1c(=O)c(C(=O)Nc2cccc(C)c2)c(O)c2ccccc21	19.3
CCOC(=O)c1c(NC(=O)C2=C(C)NC(=S)NC2c2ccc(C)cc2)sc(C)c1C (stereo not shown)	-1.14
C/C(=N/NC(=O)c1ccco1)c1cccnc1	25
CCCC(=O)Nc1ccc(C(=O)N2CCCC2)cc1	-8.04
O=C(O)CC(NC(=O)c1sc2ccccc2c1Cl)c1ccc(OC2CCCC2)cc1 (stereo not shown)	-23.4
COc1cccc(NC(=O)[C@H](Cc2c[nH]c3ccccc23)NC(=O)[C@@H]2Cc3ccccc3CN2)c1	-18
O=C(CCc1ccccc1)NCCCNC(=O)CCc1ccccc1	7.49
O=C(CSc1nnc(COc2cccc3cccnc23)o1)c1ccc(F)cc1	-5.86
COc1ccccc1N1C(=O)NC(=O)/C(=C/c2ccc3c4c(cccc24)CC3)C1=O	12.8
COc1ccc(C)cc1NC(=O)C(OC(=O)CNC(=O)c1cc(C)cc(C)c1)c1ccccc1 (stereo not shown)	18.9
CCCn1c(=S)[nH]c2cc(C(=O)NCC3CCCO3)ccc2c1=O (stereo not shown)	3.73
C=CCN(c1nc(C)cc(OC)n1)S(=O)(=O)c1ccccc1	-2.09
Cc1cccc(CN2C[C@]34C=C[C@@H](C[C@@H]3S2(=O)=O)O4)c1	12.2
O=C(c1ccc(F)cc1)N1CCN(c2ncccn2)CC1	-1.2
CCOC(=O)c1ccc(NC(=S)NCCCN2CCCC2=O)cc1	-0.072
O=C(CCc1ccc(O)cc1)c1c(O)cc(O)cc1O	17.9
O=C1NC(=O)C2(C(=O)N1)C(c1ccc(F)cc1)NC(=S)NC2c1ccc(F)cc1 (stereo not shown)	10.7
Cc1ccc(NC(=O)C2CC(=O)N/C(=N/N=C/c3ccco3)S2)cc1 (stereo not shown)	-8.45

Structure (SMILES)	hERG current change (%, negative = inhibition) at 10uM [%]
CN(C)C1=NC[C@H](Cc2ccccc2)N1CC1CCCCCC1	-27.8
COc1ccc(C(=O)CC(Nc2ccc([N+](=O)[O-])cc2)c2ccc(Cl)cc2)cc1 (stereo not shown)	-8.37
O=C(CN1C(=O)COc2ccccc21)NCCC1=CCCCC1	-33.8
O=C(CSc1nnc(CNC(=O)c2c(F)cccc2F)o1)NCC1CCCO1 (stereo not shown)	16
CCc1ccc(C(=O)CSc2nc(N)cc(=O)[nH]2)cc1	22.6
O=C1CC(c2ccc3c(c2)OCO3)C2=C(CCCC2=O)N1 (stereo not shown)	-5.08
CCC(C)[C@H](N)c1nnc(SCC(=O)Nc2ccc(C)cc2C)o1 (stereo partly shown)	-17.4
COc1ccc(C=O)cc1COc1ccc(C)cc1[N+](=O)[O-]	2.06
COc1ccc2[nH]c3nc(SC(C)C)nnc3c2c1	5.34
CCOc1ccc(NC(=O)CN(C)C(=O)CCC2CCCCC2)cc1OCC	-24.2
CC(NC(=S)NCCCN1CCOCC1)C12CC3CC(CC(C3)C1)C2 (stereo not shown)	6.47
CC(C)(C)OC(=O)NCc1ccc(NC(=O)c2nc[nH]c2C(=O)N[C@@H](Cc2ccccc2)C(=O)OCc2ccccc2)cc1	11.4
Fc1ccc(NCc2cccnc2)cc1	-2.54
COc1cccc(CNC(=O)C2CSC3(C)CCC(=O)N23)c1 (stereo not shown)	6.82
CC(C)(C)C(=O)Nc1ccc(C(=O)N/N=C/C2CC3C=CC2C3)cc1 (stereo not shown)	6.15
CCS(=O)(=O)c1ccc(C(=O)NC2CC2)c(Cl)c1Cl	3.31
CCOC(=O)c1ccc(OCC2NCCc3cc(OC)c(OC)cc32)cc1 (stereo not shown)	-16.5
CCCC(=O)NC(c1ccc(Cl)cc1)c1ccc2cccnc2c1O (stereo not shown)	-43.7
O=C(CCNC(=O)c1ccccc1Cl)NCc1ccco1	-5.42
CCc1cccc(NS(=O)(=O)c2csc(C(N)=O)c2)c1	-30.1
COc1ccc(N(CC(=O)NCc2ccc(Cl)cc2)S(=O)(=O)c2c(C)noc2C)cc1	15.1
Cc1[nH]c2ccccc2c1C(=O)C(=O)N1CCOCC1	-6.48

Structure (SMILES)	hERG current change (%, negative = inhibition) at 10uM [%]
CCOC(=O)Nc1ccc(S(=O)(=O)NCCCN2CCOCC2)cc1	-1.82
O=C(COC(=O)CNC(=O)c1ccc([N+](=O)[O-])o1)Nc1ncc(Cl)cc1Cl	-54.9
O=C(NCCCNC(=O)c1cccs1)c1cccs1	4.55
Cc1cnc(C(=O)OCC(=O)c2c[nH]c3ccccc23)cn1	8.2
Cc1ccc(NC(=O)c2ccc(C(C)(C)C)cc2)cc1[N+](=O)[O-]	1.09
CC(C)(C)CN1CCNC[C@H]1Cc1ccc(O)cc1	1.67
Cc1nn(CCC(=O)Nc2cccc(C#N)c2)c(C)c1S(=O)(=O)N1CCCCC1	-1.67
CN(C(=O)COC(=O)c1cc(S(=O)(=O)N2CCOCC2)ccc1Cl)C1CCS(=O)(=O)C1 (stereo not shown)	8.47
Cc1ccc2[nH]c3c(c2c1)CCCC3NC(=O)CCl (stereo not shown)	-0.581
CCCCC[C@H](O)/C=C/[C@@H]1[C@@H](CCCCCCC(=O)O)[C@@H](O)C[C@H]1O	19.6
CNCCC=C1c2ccccc2C=Cc2ccccc21	-1.12
Cc1ccc(SCC(=O)c2c(C)[nH]c3ccccc23)cc1	2.9
COc1ccc(C(=O)N2CCCCCC2)cc1OC1CCN(C(C)C)CC1	-3.14
O=C(NC1CC2CCC(C1)N2Cc1nnnn1Cc1ccco1)NC12CC3CC(CC(C3)C1)C2 (stereo not shown)	-42.9
CCCCc1nc2cc(C(=O)N3CCNC(=O)C3CC(=O)OC)ccc2o1 (stereo not shown)	14.2
CCN=C(NS(=O)(=O)c1ccc(Br)cc1)c1ccc(Cl)cc1	10.4
Nc1nncn1C(=O)c1cc(Br)ccc1Cl	6.05
CCN1/C(=C/c2ccc3ccccc3[n+]2CCCS(=O)(=O)[O-])C=Cc2cc(C)ccc21	24.2
CCC(=O)N1CC(=O)Nc2ccc(Cl)cc2C1c1ccc(F)cc1 (stereo not shown)	-15.5
O=C(COC(=O)CCSc1ccc(Cl)cc1)Nc1ccc(F)cc1	3.83
Cc1noc(C)c1S(=O)(=O)Nc1ccc(C#N)cc1	26.2
COc1ccc(S(=O)(=O)N2CCOCC2)cc1NC(=O)COC(=O)C1CC1C (stereo not shown)	-14.4
